# PubChem BioAssay (NCATS)
# The inconclusive results got no clear call from the source; some entries with a clear call stand among them for comparison. For some of these results: No potency is given beside an inconclusive call; the fits are too rough. The source made the active and inactive calls. The call rests on the fitted dose curve; in most records, active means well fitted curve in the direction sought with a large enough effect; inconclusive means small, poorly fitted or top-dose-only effect, or another doubt; inactive means no such curve, though single readings can be large; an effect the other way counts as inactive or inconclusive.
# Experiments:
# [1] = qHTS of pediatric cancer cell lines to identify multiple opportunities for drug repurposing: Primary screen for NB1643 cells (AID 1347099); further: nearly all actives have a fitted effect of over 50% in size
# In short: (§1)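 Plated cells (500-1,000 per well, growth media) were allowed to settle for 5 hours, treated with compound dilutions for 48 hours, then lysed with CellTiter-Glo for 15 min at room temperature before luminescence reading.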
# [2] = qHTS of pediatric cancer cell lines to identify multiple opportunities for drug repurposing: Primary screen for BT-12 cells (AID 1347101); further: nearly all actives have a fitted effect of over 25% in size
# In short: (§2)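 Cells (500-1,000/well) rested 5 h, then received compounds for 48 h; metabolically active cells were measured by CellTiter-Glo luminescence. Final concentrations spanned up to 46 µM (MIPE, 11-point) or 0.59 nM-46 µM (NPC, 8-point) in primary screens, 11-point in follow-ups.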
# [3] = qHTS of pediatric cancer cell lines to identify multiple opportunities for drug repurposing: Primary screen for Rh18 cells (AID 1347102); conditions: Rh18 rhabdomyosarcoma viability, CellTiter-Glo luminescence, 48 h; activity change, negative = cytotoxic: at 46 µM (top of the series); further: nearly all actives have a fitted effect of over 65% in size
# In short: (§3)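 Cells (500-1,000/well) in growth media were settled 5 h at 37 degrees C, then given compounds for 48 h. Viability was read as CellTiter-Glo luminescence. Primary runs used MIPE at 11 points (0.78 nM-46 µM) and NPC at 8 points (0.59 nM-46 µM); follow-ups used 11 points.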
# [4] = qHTS of pediatric cancer cell lines to identify multiple opportunities for drug repurposing: Primary screen for OHS-50 cells (AID 1347103); further: nearly all actives have a fitted effect of over 40% in size
# In short: as §2
# [5] = qHTS of pediatric cancer cell lines to identify multiple opportunities for drug repurposing: Primary screen for RD cells (AID 1347104); further: nearly all actives have a fitted effect of over 55% in size
# In short: as §1
# [6] = qHTS of pediatric cancer cell lines to identify multiple opportunities for drug repurposing: Primary screen for MG 63 (6-TG R) cells (AID 1347105); conditions: MG 63 (6-TG R) viability, CellTiter-Glo, 48 h; activity change, negative = cytotoxic: at 46 µM (top of the series); further: nearly all actives have a fitted effect of over 50% in size
# In short: as §1
# [7] = qHTS of pediatric cancer cell lines to identify multiple opportunities for drug repurposing: Primary screen for LAN-5 cells (AID 1347100); conditions: LAN-5 neuroblastoma viability, CellTiter-Glo luminescence, 48 h; activity change, negative = cytotoxic: at 46 µM (top of the series)
# In short: as §3
# [8] = qHTS of pediatric cancer cell lines to identify multiple opportunities for drug repurposing: Primary screen for control Hh wild type fibroblast cells (AID 1347106); further: nearly all actives have a fitted effect of over 55% in size
# In short: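 Viability after 48 h compound treatment at 37C, 500-1,000 cells/well, read as ATP luminescence with CellTiter-Glo. Primary screens used 11-point (MIPE, 0.78 nM-46 µM) or 8-point (NPC, 0.59 nM-46 µM) final concentrations; follow-up screens used 11-point dilutions.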
# Potency means the concentration at half of the fitted maximal effect; tags describe the fitted curve by direction and shape.
smiles,measurement,setting,value
CN1[C@@H]2CC[C@H]1CC(OC(=O)C(O)c1ccccc1)C2 (stereo partly specified),Potency,[1],inactive
OCc1ccccc1O,Potency,[1],inactive
O=C1OC2(c3ccc(O)cc3Oc3cc(O)ccc32)c2ccccc21,Potency,[1],inactive
CCn1c(-c2nonc2N)nc2cncc(CNC3CCNCC3)c21,Potency,[1],"inconclusive [cytotoxic, partial curve]"
same,Potency,[2],"inconclusive [cytotoxic, partial curve]"
same,Potency,[3],"inconclusive [cytotoxic, partial curve]"
same,Potency,[4],inactive
same,Potency,[5],"inconclusive [cytotoxic, partial curve, poor fit]"
CCN1CCN(CC(=O)Nc2ccc(-c3cccc4c(=O)cc(N5CCOCC5)oc34)c3sc4ccccc4c23)CC1,Potency,[1],"inconclusive [cytotoxic, full curve]"
same,Potency,[2],"inconclusive [cytotoxic, partial curve]"
CN(C)/N=N/c1nc[nH]c1C(N)=O,Potency,[1],"inconclusive [cytotoxic, single point]"
C[C@@H](Oc1cc(-c2cnn(C3CCNCC3)c2)cnc1N)c1c(Cl)ccc(F)c1Cl,Potency,[1],active: 3.72 µM
same,Potency,[2],active: 24.3 µM
same,Potency,[3],active: 16.6 µM
same,Potency,[4],active: 2.43 µM
same,Potency,[6],active: 18.7 µM
COC(=O)[C@@H]1CC2=CC(=O)CC[C@]2(C)[C@@]23O[C@@H]2C[C@@]2(C)[C@H](CC[C@@]24CCC(=O)O4)[C@@H]13,Potency,[1],inactive
same,Potency,[2],inactive
CC1(C)O[C@@H]2C[C@H]3[C@@H]4C[C@H](F)C5=CC(=O)CC[C@]5(C)[C@H]4[C@@H](O)C[C@]3(C)[C@]2(C(=O)CO)O1,Potency,[1],inactive
Clc1cccc(-c2nnnn2Cc2cccnc2)c1Cl,Potency,[1],inactive
CCN(CC)C(=O)N1CCN(C)CC1,Potency,[1],inactive
same,Potency,[3],inactive
C=C1C[C@H]2[C@@H]3C=C(C)C4=CC(=O)CC[C@]4(C)[C@H]3CC[C@]2(C)[C@@]1(OC(C)=O)C(C)=O,Potency,[7],"inconclusive [cytotoxic, single point]"
same,Potency,[2],"inconclusive [cytotoxic, single point]"
Cc1cnc(Nc2ccc(F)cc2Cl)nc1-c1c[nH]c(C(=O)N[C@H](CO)c2cccc(Cl)c2)c1,Potency,[1],active: 18.7 µM
same,Potency,[3],active: 16.6 µM
same,Potency,[4],active: 0.544 µM
same,Potency,[5],active: 2.35 µM
same,Potency,[6],active: 29.6 µM
COC(=O)[C@@H]1[C@H]2C[C@H]3c4[nH]c5ccccc5c4CCN3C[C@@H]2CC[C@@H]1O,Potency,[1],inactive
same,Potency,[3],inactive
CCCCC1(COC(=O)CCC(=O)O)C(=O)N(c2ccccc2)N(c2ccccc2)C1=O,Potency,[1],inactive
same,Potency,[3],inactive
Nc1nc(N)c2nc(CNc3ccc(C(=O)NC(CCC(=O)O)C(=O)O)cc3)cnc2n1 (stereo unspecified),Potency,[7],"inconclusive [cytotoxic, full curve, poor fit]"
same,Potency,[2],active: 0.0485 µM
same,Potency,[4],"inconclusive [cytotoxic, full curve]"
same,Potency,[5],"inconclusive [cytotoxic, full curve]"
same,Potency,[8],"inconclusive [cytotoxic, partial curve]"
O=c1[nH]c(=O)n([C@H]2C[C@@H](O)[C@@H](CO)O2)cc1C(F)(F)F,Potency,[1],"inconclusive [cytotoxic, full curve]"
same,Potency,[4],active: 17.2 µM
same,Potency,[5],"inconclusive [cytotoxic, partial curve, poor fit]"
Oc1cccc(-c2nc(N3CCOCC3)c3oc4ncccc4c3n2)c1,Potency,[7],active: 0.96 µM
same,Potency,[2],"inconclusive [cytotoxic, full curve]"
same,Potency,[3],active: 0.303 µM
same,Potency,[4],active: 0.444 µM
same,Potency,[5],active: 0.241 µM
same,Potency,[6],active: 0.0855 µM
same,Potency,[8],"inconclusive [cytotoxic, full curve]"
CN1CCCC(n2nc(Cc3ccc(Cl)cc3)c3ccccc3c2=O)CC1 (stereo unspecified),Potency,[7],"inconclusive [cytotoxic, single point]"
same,Potency,[2],"inconclusive [cytotoxic, partial curve]"
same,Potency,[3],"inconclusive [cytotoxic, partial curve]"
same,Potency,[5],"inconclusive [cytotoxic, single point]"
CC1(C)O[C@@H]2C[C@@H]3[C@H]4C[C@@H](F)C5=CC(=O)C=C[C@]5(C)[C@@]4(F)[C@@H](O)C[C@]3(C)[C@]2(C(=O)CO)O1,Potency,[1],"inconclusive [cytotoxic, single point]"
same,Potency,[4],inactive
same,Potency,[5],"inconclusive [cytotoxic, full curve]"
Cc1nc(NC(=O)N2CCC[C@@H]2C(N)=O)sc1-c1csc(C(C)(C)C)n1,Potency,[7],"inconclusive [cytotoxic, full curve]"
same,Potency,[2],"inconclusive [cytotoxic, partial curve]"
same,Potency,[3],active: 7.43 µM
same,Potency,[4],active: 1.72 µM
same,Potency,[6],active: 5.9 µM
same,Potency,[8],"inconclusive [cytotoxic, full curve, poor fit]"
